{"source": "PubChem BioAssay AID602179", "about": "(National Center for Advancing Translational Sciences (NCATS), 2012)", "note": "The whole screen tested about 390,000 compounds, of which about 360 (0.092%) were called active. The inconclusive results got no clear call from the source; some entries with a clear call stand among them for comparison. Calls follow the shape of the dose curve; as a rule, active = well fitted inhibition curve with a large enough effect; inconclusive = small, poorly fitted or top-dose-only effect; inactive = no such curve, though single readings can be large or run the other way. Potencies beside an inconclusive call are fits to weak or partial responses and may not hold up. % is scaled to controls: 0 for no effect and ±100 for the full control effect; potency is read from the fitted curve at half-maximal effect; tags tell the direction and shape of the fitted curve.", "data": [{"biological_target": "Isocitrate dehydrogenase [NADP] cytoplasmic (Homo sapiens) (UniProt O75874)", "assay": "qHTS for Inhibitors of mutant isocitrate dehydrogenase 1 (IDH1): qHTS; also: nearly all actives have a fitted effect of over 65% in size", "settings": "IDH1-R132H enzyme, NADPH consumption, diaphorase/resazurin fluorescence; series mostly up to 76.6 µM; activity change, negative = inhibition: at the top concentration", "in_short": "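IDH1-R132H (0.5 ug/mL) preincubated 30 min with compound, then NADPH (0.016 mM) and alpha-KG (2 mM) added; 80 min at RT, pH 7.5. Remaining NADPH coupled via diaphorase/resazurin to fluorescence (540/590 nm); concentration-response curves normalized to no-enzyme control.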", "values": [{"smiles": "Cc1ccccc1C(=O)Nc1cc2c(cc1N1CCCCC1)n(C)c(=O)n2C", "Potency": "inconclusive: 50.1 µM [inhibitor, single point]"}, {"smiles": "Cc1nc2c(-c3ccc(F)cc3)c(C)nn2c(C)c1CCC(=O)NC(C)CCc1ccco1", "note": "(centres undefined)", "Potency": "inconclusive: 63.1 µM [inhibitor, single point]"}, {"smiles": "CCN(CC)CCCNC(=O)CCC(=O)NNc1nc2ccccc2c2nc(C)nn12", "Potency": "inactive"}, {"smiles": "Cc1ccc(C2C3CSCC=C3C(C#N)=C(N)C2(C#N)C#N)cc1", "note": "(centres undefined)", "Potency": "inconclusive: 18.5 µM [inhibitor, partial curve, poor fit]"}, {"smiles": "CCOc1ccc(Oc2ccccc2NS(=O)(=O)c2ccc(CCC(=O)O)cc2)cc1", "activity change, negative = inhibition": "inactive: 18.3%"}, {"smiles": "COc1ccc(Cn2ccnc2SCC(=O)Nc2nnc(C)s2)cc1", "Potency": "inactive"}, {"smiles": "Cc1ccc2c(c1)-c1c(c(C(=O)N3CCN(c4cc(C)ccc4C)CC3)nn1C)CS2", "Potency": "inconclusive: 50.1 µM [inhibitor, single point]"}, {"smiles": "CCCCC[C@@H](/C=C/C1C(=O)C=C[C@H]1C/C=C\\CCCC(=O)OC)OC(C)=O", "note": "(some centres undefined)", "Potency": "inconclusive: 28.2 µM [inhibitor, single point]"}, {"smiles": "CC(C)(CO)Nc1nc(Cl)nc(NC2CCCCC2)n1", "activity change, negative = inhibition": "inactive: 2.96%"}, {"smiles": "CCN1CCN(C(=O)c2ccc3c(c2)N(Cc2cccc(Cl)c2)C(=O)c2ccccc2S3=O)CC1", "note": "(centres undefined)", "activity change, negative = inhibition": "inactive: -6.62%"}, {"smiles": "C=C(C)Cc1c(C)c(C#N)c2nc3ccccc3n2c1N1CCCCC1", "Potency": "inconclusive: 16.5 µM [inhibitor, full curve]"}, {"smiles": "C=C(CC)C(=O)c1ccc(OCC(=O)O)c(Cl)c1Cl", "Potency": "inconclusive: 50.1 µM [inhibitor, single point]"}, {"smiles": "Cc1ccc(S(=O)(=O)N2CCN(Cc3cc(Br)ccc3O)CC2)cc1", "Potency": "inconclusive: 50.1 µM [inhibitor, single point]"}, {"smiles": "NNC(=O)CN1C(c2ccc(Cl)cc2)=Nc2ccc(Br)cc2C1c1ccccc1", "note": "(centres undefined)", "Potency": "inconclusive: 41.4 µM [inhibitor, partial curve]"}, {"smiles": "CCOC(=O)c1c(NC(=O)/C=C/C(=O)O)sc(C)c1-c1ccc(C(C)(C)C)cc1", "Potency": "inconclusive: 58.5 µM [inhibitor, single point]"}, {"smiles": "COc1ccc(OC)c(NC(=O)c2ccc3c(SCC(=O)O)c4c(nc3c2)CCCC4)c1", "Potency": "inconclusive: 44.7 µM [inhibitor, single point]"}, {"smiles": "C(=N/Nc1cc(N2CCOCC2)nc(N2CCOCC2)n1)/c1ccccc1", "Potency": "inconclusive: 16.5 µM [inhibitor, partial curve, poor fit]"}, {"smiles": "Cc1ccc(-c2nc3c(c(SCC(=O)N(C)c4ccccc4)n2)Cc2c(CO)cnc(C)c2O3)cc1", "Potency": "inconclusive: 44.7 µM [inhibitor, single point]"}, {"smiles": "CCc1nc2ccccc2n2c(-c3ccccc3)c3c(=O)n(C)c(=O)n(C)c3c12", "Potency": "inconclusive: 50.1 µM [inhibitor, single point]"}, {"smiles": "COc1ccc2nc(Sc3c([N+](=O)[O-])nc(C)n3Cc3ccccc3)[nH]c2c1", "activity change, negative = inhibition": "inactive: 4.54%"}, {"smiles": "COc1ccc(OCc2n(CC(=O)OC3CC(C)CCC3C(C)C)c3ccccc3[n+]2C)cc1", "note": "(centres undefined)", "activity change, negative = inhibition": "inactive: 1.06%"}, {"smiles": "NC(=S)N/N=C/c1ccc(-c2cc(Cl)cc(Cl)c2)o1", "activity change, negative = inhibition": "inactive: -0.893%"}, {"smiles": "COc1ccc(CCn2c(C3CCCCC3)nc3c(c(=O)c4ccccc4n3C)c2=O)cc1", "Potency": "inconclusive: 58.5 µM [inhibitor, single point]"}, {"smiles": "COc1ccc(-c2nnc(SCC(=O)c3ccc[nH]3)n2-c2ccccc2)cc1", "activity change, negative = inhibition": "inactive: -2.64%"}, {"smiles": "CCN(CC)C(=O)c1sc2c(c1C)c(=O)n(-c1ccc(C)c(C)c1)c(=O)n2Cc1cccc(Cl)c1", "Potency": "inconclusive: 8.91 µM [inhibitor, partial curve]"}, {"smiles": "C=C1CC(COc2ccc3c(C)c(Cl)c(=O)oc3c2)(c2ccccc2)OC1=O", "note": "(centres undefined)", "Potency": "inconclusive: 58.5 µM [inhibitor, single point]"}, {"smiles": "C/C(=N/n1cnnc1)c1cccnc1", "activity change, negative = inhibition": "inactive: -0.3%"}, {"smiles": "CCCC(=O)C1=C(c2cccc(OC)c2)N(C(=O)CCC)n2c(C)nnc2S1", "Potency": "active: 44.7 µM"}, {"smiles": "CCOc1ccc(CNC(=O)c2ccc3c(c2)nnn3C2CCCC2)cc1", "activity change, negative = inhibition": "inactive: -1.82%"}, {"smiles": "Cc1c(C(=O)Nc2ccccc2)cnn1-c1ccccc1", "activity change, negative = inhibition": "inactive: 7.16%"}, {"smiles": "COc1cc(NCc2ccccc2)c2ncn(C(C)C)c2c1", "Potency": "inconclusive: 70.8 µM [inhibitor, single point]"}, {"smiles": "Cn1c(=O)c(NC2CCCCC2)c2c3c(cccc31)C(=O)c1ccccc1-2", "Potency": "inconclusive: 16.5 µM [inhibitor, single point]"}, {"smiles": "COc1cc2c(C#N)c(N3CCOCC3)nc(N)c2c(N)n1", "activity change, negative = inhibition": "inactive: 1.47%"}, {"smiles": "CCOC(=O)N1CCC(=C2c3ccc(Cl)cc3CCc3cccnc32)CC1", "Potency": "inconclusive: 50.1 µM [inhibitor, partial curve, poor fit]"}, {"smiles": "Cc1ccc(CN2CCC(n3nccc3NC(=O)C3CCOC3)CC2)cc1", "note": "(centres undefined)", "activity change, negative = inhibition": "inactive: 1.23%"}, {"smiles": "CCCN(C(=O)COc1cc(=O)n(CC)c2ccccc12)c1ccc(C(C)C)cc1", "activity change, negative = inhibition": "inactive: -8.21%"}, {"smiles": "CCc1ccc(-c2nn(CC(=O)NCc3ccccc3)c3c2cnc2ccc(C)cc23)cc1", "activity change, negative = inhibition": "inactive: -7.29%"}, {"smiles": "O=C(NC1CCCCC1)N(Cc1ccc(F)cc1)Cc1nc2ccccc2c(=O)[nH]1", "Potency": "inconclusive: 10.4 µM [inhibitor, full curve]"}, {"smiles": "CC1(C)CC(=O)c2cc(-c3nc(-c4ccc(Cl)cc4)cs3)c(=O)n(-c3cccc(F)c3)c2C1", "Potency": "inconclusive: 6.31 µM [inhibitor, full curve]"}, {"smiles": "CC1CC=C2C(C#N)=C(N)C(C#N)(C#N)C(c3cccs3)C2C1", "note": "(centres undefined)", "Potency": "active: 20.7 µM"}, {"smiles": "CCOC(=O)c1cnc2c(Cl)c(Cl)ccc2c1NCCN1CCOCC1", "Potency": "inconclusive: 63.1 µM [inhibitor, single point]"}, {"smiles": "COc1ccc(-c2csc3nc(C)nc(N4CCC(C)CC4)c23)cc1OC", "Potency": "inconclusive: 50.1 µM [inhibitor, single point]"}, {"smiles": "Cc1cc(C(C)(C)C)oc1C(=O)NCCCNC(=O)c1oc(C(C)(C)C)cc1C", "Potency": "inconclusive: 13.1 µM [inhibitor, single point]"}, {"smiles": "CC1(C)C=Cc2c(c3c(c4c(=O)c(-c5ccc(O)cc5)coc24)OC(C)(C)CC3)O1", "Potency": "active: 39.8 µM"}]}]}
